System: NCI-H460, a large cell lung carcinoma cell line
Experiment: Cellular bioenergetics, Seahorse XF-24 OCR and ECAR
Conditions: H460 cells

Spinosad
oxygen consumption decreased by, compared to the control (20 μg/mL spinosad in DMSO, 3 hours): 50%
ECAR (Extra Cellular Acidification Rate) (7.6 hours after treatment with spinosad): relatively unaffected

— patent US8697661B2, “Use of spinosyns and spinosyn compositions against herpesviridae viral infections” (priority 2009, dated 2014)
